Results: paper PMC10957897, “An evolutionary mechanism to assimilate new nutrient sensors into the mTORC1 pathway” (Nature Communications, 2024)
No constants are given. Whether binding was seen depends on the method and setting. In cells and extracts the contact can be indirect. Some results given as binding are weak or reduced against the parent protein; the word gives no strength. For part of these data: Where a sequence is shown, tags or fusion partners need not be part of it.

The chains behind the UniProt entries cited, without tags or fusion partners. Where a name states a change or a piece, a line headed by the entry shows the natural chain unless it says otherwise.
UniProt Q9W0E3: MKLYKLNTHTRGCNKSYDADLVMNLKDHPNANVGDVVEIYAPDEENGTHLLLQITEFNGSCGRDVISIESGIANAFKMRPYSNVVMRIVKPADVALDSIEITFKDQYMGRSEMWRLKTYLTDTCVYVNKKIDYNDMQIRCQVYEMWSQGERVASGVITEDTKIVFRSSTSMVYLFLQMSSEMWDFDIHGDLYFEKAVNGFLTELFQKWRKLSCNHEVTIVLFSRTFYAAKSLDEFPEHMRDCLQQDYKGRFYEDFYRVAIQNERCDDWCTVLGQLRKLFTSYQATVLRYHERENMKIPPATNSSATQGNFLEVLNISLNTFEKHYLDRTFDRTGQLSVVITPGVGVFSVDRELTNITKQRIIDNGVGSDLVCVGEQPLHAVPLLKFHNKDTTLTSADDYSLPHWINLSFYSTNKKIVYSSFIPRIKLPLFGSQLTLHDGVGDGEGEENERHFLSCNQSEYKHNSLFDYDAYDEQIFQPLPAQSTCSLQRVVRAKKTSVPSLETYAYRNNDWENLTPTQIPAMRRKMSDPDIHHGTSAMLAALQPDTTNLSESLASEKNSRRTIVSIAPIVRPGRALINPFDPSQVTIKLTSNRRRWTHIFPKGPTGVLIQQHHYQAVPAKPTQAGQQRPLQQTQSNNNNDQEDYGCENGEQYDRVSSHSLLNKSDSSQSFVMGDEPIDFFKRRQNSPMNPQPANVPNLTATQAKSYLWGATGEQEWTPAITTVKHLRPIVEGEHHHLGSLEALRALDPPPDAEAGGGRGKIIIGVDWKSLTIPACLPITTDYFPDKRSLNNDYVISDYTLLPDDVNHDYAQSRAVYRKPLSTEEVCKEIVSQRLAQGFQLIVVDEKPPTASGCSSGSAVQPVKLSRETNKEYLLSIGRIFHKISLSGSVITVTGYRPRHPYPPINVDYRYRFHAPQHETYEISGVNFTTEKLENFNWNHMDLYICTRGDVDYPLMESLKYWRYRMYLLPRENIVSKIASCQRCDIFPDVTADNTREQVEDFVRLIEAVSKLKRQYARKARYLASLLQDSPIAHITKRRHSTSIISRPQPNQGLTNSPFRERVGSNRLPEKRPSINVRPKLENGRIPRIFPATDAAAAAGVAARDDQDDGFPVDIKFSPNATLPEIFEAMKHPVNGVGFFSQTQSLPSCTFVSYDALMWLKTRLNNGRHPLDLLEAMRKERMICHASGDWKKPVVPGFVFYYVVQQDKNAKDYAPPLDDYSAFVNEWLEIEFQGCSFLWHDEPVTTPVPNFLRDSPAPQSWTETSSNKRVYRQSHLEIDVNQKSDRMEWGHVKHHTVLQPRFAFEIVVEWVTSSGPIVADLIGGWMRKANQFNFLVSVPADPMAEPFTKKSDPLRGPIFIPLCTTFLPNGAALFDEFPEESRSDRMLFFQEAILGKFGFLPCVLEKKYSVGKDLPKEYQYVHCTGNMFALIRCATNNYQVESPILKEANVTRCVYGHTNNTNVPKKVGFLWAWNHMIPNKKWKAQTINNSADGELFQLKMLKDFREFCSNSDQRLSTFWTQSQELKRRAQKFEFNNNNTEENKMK
UniProt Q9VKK2: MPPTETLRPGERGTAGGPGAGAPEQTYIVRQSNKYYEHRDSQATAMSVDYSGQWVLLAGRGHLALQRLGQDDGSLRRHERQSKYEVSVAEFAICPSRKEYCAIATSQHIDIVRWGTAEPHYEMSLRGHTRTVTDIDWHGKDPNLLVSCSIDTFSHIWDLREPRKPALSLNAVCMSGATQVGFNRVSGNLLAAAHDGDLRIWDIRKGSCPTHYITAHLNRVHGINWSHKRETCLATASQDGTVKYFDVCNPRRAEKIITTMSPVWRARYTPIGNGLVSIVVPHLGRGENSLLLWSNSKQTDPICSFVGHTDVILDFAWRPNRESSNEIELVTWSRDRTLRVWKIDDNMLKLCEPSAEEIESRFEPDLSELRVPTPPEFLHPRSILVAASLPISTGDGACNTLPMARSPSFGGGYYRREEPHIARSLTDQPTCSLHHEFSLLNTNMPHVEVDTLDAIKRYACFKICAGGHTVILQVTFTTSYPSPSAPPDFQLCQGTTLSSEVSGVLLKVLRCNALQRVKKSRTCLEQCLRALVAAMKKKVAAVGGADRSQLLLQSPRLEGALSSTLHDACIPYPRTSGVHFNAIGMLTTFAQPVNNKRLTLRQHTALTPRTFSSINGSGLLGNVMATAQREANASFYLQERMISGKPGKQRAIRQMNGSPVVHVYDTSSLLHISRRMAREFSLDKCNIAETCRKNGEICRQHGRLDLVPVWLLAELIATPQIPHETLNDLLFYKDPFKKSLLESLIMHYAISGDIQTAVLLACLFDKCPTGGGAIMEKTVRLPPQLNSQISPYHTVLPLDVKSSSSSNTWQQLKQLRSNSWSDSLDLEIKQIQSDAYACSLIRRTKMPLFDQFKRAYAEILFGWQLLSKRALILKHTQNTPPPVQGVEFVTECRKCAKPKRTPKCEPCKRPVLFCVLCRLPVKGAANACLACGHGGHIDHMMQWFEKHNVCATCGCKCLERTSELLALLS

What was measured:
[1] = biological target: T1, HA-Unmet, transiently expressed in HEK-293T cells (D. melanogaster) (UniProt Q9I7X6); assay: co-IP; anti-HA immunoprecipitates from HEK-293T cells co-transfected with the sensor and the GATOR complexes; Triton lysis buffer, washes with 300 mM NaCl
T1 sequence: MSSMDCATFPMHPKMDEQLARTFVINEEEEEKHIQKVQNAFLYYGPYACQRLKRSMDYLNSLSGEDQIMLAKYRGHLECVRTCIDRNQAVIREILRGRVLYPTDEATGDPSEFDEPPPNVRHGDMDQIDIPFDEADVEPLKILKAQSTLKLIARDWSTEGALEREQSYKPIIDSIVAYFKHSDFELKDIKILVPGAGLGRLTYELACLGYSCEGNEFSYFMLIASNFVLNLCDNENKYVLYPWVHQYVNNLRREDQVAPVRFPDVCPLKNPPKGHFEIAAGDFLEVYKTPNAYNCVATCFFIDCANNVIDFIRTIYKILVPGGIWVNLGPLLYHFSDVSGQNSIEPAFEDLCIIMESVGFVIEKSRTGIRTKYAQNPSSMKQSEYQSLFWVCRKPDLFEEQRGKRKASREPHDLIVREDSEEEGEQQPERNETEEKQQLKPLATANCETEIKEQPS

[2] = biological target: T2, dSestrin, transiently expressed in HEK-293T cells (D. melanogaster) (UniProt Q9W1K5); assay: as above
T2 sequence: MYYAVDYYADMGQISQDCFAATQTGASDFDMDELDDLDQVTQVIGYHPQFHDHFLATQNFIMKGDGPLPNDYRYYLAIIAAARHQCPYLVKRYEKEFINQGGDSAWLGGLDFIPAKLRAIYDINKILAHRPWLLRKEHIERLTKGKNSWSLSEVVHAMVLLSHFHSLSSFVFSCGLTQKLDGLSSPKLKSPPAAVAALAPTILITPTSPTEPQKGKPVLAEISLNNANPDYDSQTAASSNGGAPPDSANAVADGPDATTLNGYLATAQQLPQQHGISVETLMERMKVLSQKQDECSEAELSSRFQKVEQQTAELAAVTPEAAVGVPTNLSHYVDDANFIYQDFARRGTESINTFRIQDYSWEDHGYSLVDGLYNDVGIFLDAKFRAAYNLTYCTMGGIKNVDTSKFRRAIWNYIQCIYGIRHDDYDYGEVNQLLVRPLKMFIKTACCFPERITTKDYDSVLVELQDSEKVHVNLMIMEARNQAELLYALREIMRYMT

[3] = biological target: T3, HA-tagged Unmet, transiently expressed in S2R+ cells (D. melanogaster) (UniProt Q9I7X6); assay: co-IP; anti-HA immunoprecipitates from S2R+ cells with endogenous FLAG knock-in tags at Iml1 or dWDR59, transfected with HA-tagged cDNAs in MT vectors, 48 h 75 uM CuSO4; washes with 300 mM NaCl; methionine or leucine withdrawal in Supplementary Fig. 2b
T3 sequence: T1 sequence

[4] = biological target: T4, carnosine N-methyltransferase 1 (CARNMT1), human, transiently expressed in HEK-293T cells (human) (UniProt Q8N4J0); assay: co-IP; anti-HA immunoprecipitates from HEK-293T cells co-transfected with the sensor and the GATOR complexes; Triton lysis buffer, washes with 300 mM NaCl
T4 sequence: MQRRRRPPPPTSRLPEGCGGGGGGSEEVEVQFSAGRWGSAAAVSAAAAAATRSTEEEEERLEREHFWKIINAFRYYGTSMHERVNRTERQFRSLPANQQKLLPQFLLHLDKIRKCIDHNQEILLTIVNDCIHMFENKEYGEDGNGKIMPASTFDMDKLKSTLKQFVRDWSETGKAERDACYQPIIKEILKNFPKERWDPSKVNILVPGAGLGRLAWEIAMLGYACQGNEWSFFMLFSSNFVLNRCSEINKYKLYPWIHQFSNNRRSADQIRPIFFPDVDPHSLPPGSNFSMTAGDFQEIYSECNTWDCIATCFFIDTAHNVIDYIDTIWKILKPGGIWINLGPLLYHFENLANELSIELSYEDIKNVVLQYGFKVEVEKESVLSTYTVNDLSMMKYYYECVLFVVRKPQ

| binding [1] | binding [2] | binding [3] | binding [4] | Substance |
| --- | --- | --- | --- | --- |
| no binding | no binding |  |  | dGATOR1 complex, transiently expressed in HEK-293T cells (from UniProt Q9W0E3 1-1544; Q9VXA0 1-412; Q9VUB4 1-610) |
|  |  | binds |  | endogenous dGATOR2 complex of S2R+ cells (FLAG knock-in at dWDR59) (from UniProt Q9VKK2 1-969; Q9XZ25 1-776; Q9VQ89 1-867; Q7K2X8 1-354; Q9V3J4 1-356) |
| binds | binds |  | binds | dGATOR2 complex, transiently expressed in HEK-293T cells (from UniProt Q9VKK2 1-969; Q9XZ25 1-776; Q9VQ89 1-867; Q7K2X8 1-354; Q9V3J4 1-356) |
